In PubChem BioAssay AID686979 (National Center for Advancing Translational Sciences (NCATS), 2013):
Hit rate of the full screen: of about 420,000 compounds, about 50,000 (12%) were called active. The inconclusive results got no clear call from the source; some entries with a clear call stand among them for comparison. Calls follow the shape of the dose curve; as a rule, active = well fitted inhibition curve with a large enough effect; inconclusive = small, poorly fitted or top-dose-only effect; inactive = flat fitted curve, though single readings scatter. Potencies of inconclusive entries are left out as doubtful fits.

Assay: qHTS for Inhibitors of human tyrosyl-DNA phosphodiesterase 1 (TDP1): qHTS in cells in presence of CPT; also: nearly all actives have a fitted effect of over 55% in size
Conditions: chicken DT40 Tdp1-/-;hTDP1 cells + 20 nM CPT, ATP luminescence, 48 h; activity change, negative = growth inhibition: at 46.2 µM (top of the series) unless noted
In short: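 Chicken DT40 Tdp1-/- cells stably complemented with human TDP1 were seeded at 400 cells/well in medium containing 20 nM camptothecin, exposed to pin-transferred compounds, and grown at 37 °C for at least 48 hr. Viability was read as ATP luminescence.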
% is scaled to controls: 0 for no effect and ±100 for the full control effect; potency is read from the fitted curve at half-maximal effect; tags tell the direction and shape of the fitted curve.

Row | Structure (SMILES) | Potency | activity change, negative = growth inhibition
1 | COc1cc(-c2nnc(SCC(=O)N(Cc3ccccc3)C(C)(C)C)o2)cc(OC)c1OC | active: 13 µM | –
2 | CCCc1[nH]nc2c1C(c1ccc(O)c(OC)c1)C(C#N)=C(N)O2 (stereo unspecified) | – | inactive: -16%
3 | CC[C@@]1(C(=O)OC)N[C@H](CN(C)C(=O)Nc2ccc(C)cc2)[C@@H]2C(=O)N(Cc3ccccc3)C(=O)[C@@H]21 | active: 29.1 µM | –
4 | Clc1ccc(C[n+]2cc(-c3ccccc3)n3c2CCC3)cc1 | active: 2.91 µM | –
5 | O=C1/C(=C\c2ccc(O)cc2)SC(=S)N1c1cccnc1 | – | inconclusive: -32.7% [inhibitor]
6 | Cc1ccc(NC(=O)CN2CCN(C(=O)c3ccco3)CC2)cc1S(=O)(=O)N(C)C | – | inactive: -23.3%
7 | CC(C)Cc1nnc(NC(=O)c2cc([N+](=O)[O-])ccc2N2CCOCC2)s1 | – | inactive: 4.65%
8 | Cc1nnc(SCc2ccccc2Cl)c2cc3sccc3n12 | inconclusive [inhibitor, single point] | –
9 | COCCNC(=O)CN(Cc1ccc(F)cc1)C(=O)CCC(=O)Nc1nccs1 | – | inactive: -15.3%
10 | Cc1ccc(C(=O)Nc2ccccc2C(=O)O)cc1S(=O)(=O)N1CCCCCC1 | inconclusive [inhibitor, single point] | –
11 | COc1ccc(S(=O)(=O)O/N=C2\CCCc3ccccc32)cc1 | inconclusive [inhibitor, single point] | –
12 | CCCCCOc1ccc(NC(=O)Cc2csc(C)n2)cc1 | inconclusive [inhibitor, single point] | –
13 | COc1ccc(NS(=O)(=O)c2ccc3nc(COc4ccc(C#N)cc4)[nH]c3c2)cc1 | – | inactive: -9.27%
14 | Cn1c(C(=O)N2CCCC(C(=O)NCc3ccc4c(c3)OCO4)C2)cc2sccc21 (stereo unspecified) | – | inconclusive: -34.3% [inhibitor]
15 | CN(C)S(=O)(=O)c1ccc(Cl)c(C(=O)NNC(=O)c2ccc3c(c2)OCO3)c1 | – | inactive: -19.2%
16 | CCn1c(=O)c2c3c(sc2n2c(SCc4ccc(F)cc4)nnc12)CCCC3 | inconclusive [inhibitor, single point] | –
17 | CCOC(=O)CN(c1sc(C)c(C)c1C(=O)OCC)S(=O)(=O)c1ccc(C)cc1 | inconclusive [inhibitor, single point] | –
18 | CC(C)OCCCN1C(=O)c2ccccc2C1C(=O)NC1CCCCC1 (stereo unspecified) | – | inactive: -15.1%
19 | O=C(COc1cccc(NC(=O)c2cccc([N+](=O)[O-])c2)c1)c1ccc(F)cc1 | inconclusive [inhibitor, single point] | –
20 | Cc1cccc(NC(=O)C2(c3ccccc3)CC2(Cl)Cl)c1 (stereo unspecified) | – | inactive: 6.89%
21 | COc1ccccc1N1CCN(S(=O)(=O)CCNC(=O)C(C)Oc2ccccc2)CC1 (stereo unspecified) | – | inconclusive: -32.7% [inhibitor]
22 | Cc1c(C(=O)N2CCN(S(=O)(=O)c3ccccc3F)CC2)oc2c(Cl)cccc12 | inconclusive [inhibitor, single point] | –
23 | CCC1NC(=O)c2cc3ccccc3cc2-n2c1nc1ccc(F)cc1c2=O (stereo unspecified) | inconclusive [inhibitor, single point] | –
24 | COc1ccc(/C=N/n2c(-c3ccc(C)cc3)n[nH]c2=S)cc1OC | inconclusive [inhibitor, single point] | –

Row | Structure (SMILES) | Potency | activity change, negative = growth inhibition
25 | N#Cc1c(-c2ccc(F)cc2)cc(-c2ccccc2)nc1SCC(=O)NCC(=O)O | inconclusive [inhibitor, single point] | –
26 | CN(C)Cc1c(O)c(Cl)cc2c3c(c(=O)oc12)CCCC3 | inconclusive [inhibitor, single point] | –
27 | CCn1c(SCC(=O)Nc2ccc(Br)cc2)nc2sc3c(c2c1=O)CCN(C)C3 | inconclusive [inhibitor, single point] | –
28 | NS(=O)(=O)c1ccc(CCNC(=O)COC(=O)Cc2ccc([N+](=O)[O-])cc2)cc1 | – | inactive: 3.95%
29 | Cc1ccc(CNC(=O)C2c3ccccc3C(=O)N3CCc4ccccc4C23)o1 (stereo unspecified) | inconclusive [inhibitor, single point] | –
30 | CCC(C)c1ccc(OCCCCN2CCOCC2)cc1 (stereo unspecified) | inconclusive [inhibitor, single point] | –
31 | O=C(NCCN1CCOCC1)c1cn(-c2ccccc2)nc1-c1cccs1 | – | inactive: 0.0308%
32 | NNC(=O)c1[nH]c(-c2ccccc2)cc1-c1ccccc1 | – | inactive: -23.9%
33 | COc1cc(/C=N/Nc2ncnc3sc4c(c23)CCC4)ccc1O | inconclusive [inhibitor, single point] | –
34 | COc1cc(OC)c(NC(=O)C(NS(=O)(=O)c2cccc3nsnc23)c2ccccc2)cc1Cl (stereo unspecified) | inconclusive [inhibitor, single point] | –
35 | O=c1[nH]c(C2CCN(S(=O)(=O)c3ccc(S(=O)(=O)NC4CC4)cc3)CC2)nc2c1nnn2Cc1ccccc1 | – | inactive: -3.66%
36 | CCOc1ccc(NC(=O)c2cnn(-c3ccc(C)c(Cl)c3)c2C2CCNCC2)cc1 | active: 23.1 µM | –
37 | COc1ccc(Cl)cc1NC(=S)NCCO | – | inactive: 31.8%
38 | O=C(O)c1ccccc1C(=O)OCc1c(-c2ccccc2)ncc2ccccc12 | inconclusive [inhibitor, single point] | –
39 | Cc1ccc2nc(NC(=O)CN(C)S(=O)(=O)c3ccc(Br)s3)sc2c1 | inconclusive [inhibitor, single point] | –
40 | Cc1ccc(-c2[nH]c(-c3ccc(Cl)cc3)nc2SCC(=O)NCC2CCCO2)cc1 (stereo unspecified) | inconclusive [inhibitor, single point] | –
41 | Cc1ccccc1N(C(=O)Cn1nnc(-c2ccc(F)cc2)n1)C(C(=O)NC(C)(C)C)c1ccncc1 (stereo unspecified) | – | inactive: 0.522%
42 | O=C(/C=C/c1cccnc1)c1ccc(NC(=O)c2cccc(Br)c2)cc1 | active: 7.08 µM | –
43 | CSc1ncccc1C(=O)NC1CC(C)(C)Cc2c1cnn2-c1ccccc1C (stereo unspecified) | active: 23.1 µM | –
44 | Nc1ccc(C(=O)N2CCN(S(=O)(=O)c3ccc(Cl)s3)CC2)cc1[N+](=O)[O-] | – | inconclusive: -30.3% [inhibitor]
45 | Cc1noc(/C=C/N(C)C)c1S(=O)(=O)N1CCCC(C(=O)Nc2ccccc2F)C1 (stereo unspecified) | inconclusive [inhibitor, single point] | –
46 | COc1ccc(S(=O)(=O)N2CCC(C(=O)O)(c3ccccc3)CC2)cc1 | – | inactive: 5.13%
47 | CC(CN1CCOCC1)OC(=O)c1ccc(Br)cc1 (stereo unspecified) | active: 0.92 µM | –
48 | COC(=O)c1ccc(C(=O)OC)c(NC(=O)CSc2ccccn2)c1 | – | inconclusive: -36.4% [inhibitor]

Row | Structure (SMILES) | Potency | activity change, negative = growth inhibition
49 | FC(F)(F)c1ccc(Oc2ccc3c(C(F)(F)F)cc(C(F)(F)F)nc3n2)cc1 | – | inactive: -5.97%
50 | Oc1ccc(C[C@H]2CNC(=S)N2C[C@H]2CCCN2C[C@H](Cc2ccccc2)N2C[C@H](Cc3ccc(O)cc3)N(CCc3ccccc3)C2=S)cc1 | active: 7.31 µM | –
51 | Cc1ccc(S(=O)(=O)N/N=C/c2cccc3c2OCCO3)cc1 | inconclusive [inhibitor, single point] | –
52 | CCN(CC)c1cc(C(F)(F)F)nc(-c2ccccn2)n1 | inconclusive [inhibitor, single point] | –
53 | Cc1ccc(N(CC(=O)NC2CCCC2)C(=O)CNC(=O)c2cccs2)c(C)c1 | – | inactive: -23.2%
54 | COc1ccc(-c2cn[nH]c2-c2ccc(OCc3ccc([N+](=O)[O-])cc3)cc2O)cc1OC | inconclusive [inhibitor, single point] | –
55 | CNC(=S)N(Cc1ccc(OC)cc1)Cc1cc2ccc(C)cc2[nH]c1=O | – | inactive: -20.2%
56 | Oc1ccc(-c2cn3cc(C(F)(F)F)ccc3n2)cc1 | inconclusive [inhibitor, partial curve] | –
57 | CCN(CC)S(=O)(=O)c1ccc(N2CCOCC2)c(NC(=O)CCOc2ccccc2)c1 | inconclusive [inhibitor, single point] | –
58 | O=C(CN1CCN(c2ccccn2)CC1)Nc1cc(C(F)(F)F)ccc1Cl | inconclusive [inhibitor, single point] | –
59 | Cc1ccc2[nH]c(C(=O)Nc3ccccc3)cc2c1 | inconclusive [inhibitor, single point] | –
60 | CC(=O)NC(Cc1c[nH]c2ccccc12)C(=O)N1CCc2ccccc2C1 (stereo unspecified) | – | inactive: -21.4%
61 | O=C(c1ccc(-c2nnc(Nc3cccc(Cl)c3)c3ccccc23)cc1)N1C[C@H]2C[C@H](C1)c1cccc(=O)n1C2 | inconclusive [inhibitor, single point] | –
62 | COc1ccc(S(=O)(=O)n2nc(C)c(S(=O)(=O)N3CCOCC3)c2C)cc1 | – | inactive: -1.57%
63 | CCOc1cc(C2NC(=O)c3c(sc4c3CCN(C)C4)N2)ccc1OC(=O)c1ccccc1Cl (stereo unspecified) | – | inactive: 5.27%
64 | COc1cc2cc(C(c3nnnn3C(C)(C)C)N3CCc4ccccc4C3)c(=O)[nH]c2cc1OC (stereo unspecified) | active: 18.4 µM | –
65 | O=C(Oc1ccccc1)N1CCC2(CC1)CN(c1ccccc1)C2 | inconclusive [inhibitor, single point] | –
66 | CCc1ccc(CN2CCC(n3nccc3NC(=O)c3ccccc3OC)CC2)o1 | inconclusive [inhibitor, single point] | –
67 | Cc1ccc(NC(=O)c2cccc(N3C(=O)C4C5CCC(C5)C4C3=O)c2)c(C)c1 (stereo unspecified) | inconclusive [inhibitor, single point] | –
68 | Cc1ccc(C(=O)Nc2ccccc2-c2ccccc2)cc1S(=O)(=O)Nc1cccc(C)c1C | inconclusive [inhibitor, single point] | –
69 | O=S(=O)(CCSc1nc2ccccc2s1)c1nc2ccccc2s1 | active: 6.51 µM | –
70 | COC(=O)Cc1ccc(OC2(C)CCN(Cc3ccccc3OC(F)F)C2)cc1 (stereo unspecified) | – | inactive: -13.5%
71 | CC1CCc2sc(C(=O)NC3CCCCC3)cc2C1 (stereo unspecified) | inconclusive [inhibitor, single point] | –
